Drawing on PubChem BioAssay (NCI), this text covers TGI and GI50 for 35 compounds.

Where “and” joins values, the source holds several entries; their conditions need not be identical. Identical values can stand only once.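 Cells were grown in 96-well plates and exposed to each compound for 48 hours at five concentrations; endpoints were interpolated linearly between bracketing concentrations, or set to the highest concentration if not reached. Here, GI50 denotes the concentration required for 50% inhibition of growth. The concentration for full growth arrest is given as TGI.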

In the assay the test system is NCI-H322M lung. In words: NCI anticancer screen, dose series, 48 h.
Turning to `CSc1nc(=O)c(C#N)c(-c2ccccc2)n1C1OC(COC(C)=O)C(OC(C)=O)C(OC(C)=O)C1OC(C)=O` (centres undefined), the TGI is over 100 µM.
Same read-out and setting: in the case of `c1cn[nH]c1` it was over 10 µM; in that of `C/C(NC(=O)c1ccccc1)=C(/C(=O)c1ccccc1)[C@@H]1OC(C)(C)O[C@@H]1[C@H]1COC(C)(C)O1`, over 100 µM.
Same read-out and setting: with `Cc1ccc([Se][Se]c2ccc(C)cc2)cc1` the figure was over 100 µM.
Still for that read-out and setting: in the case of `Clc1ccc(-c2nn3c(C45CC6CC(CC(C6)C4)C5)nnc3s2)cc1` it was over 100 µM.
`COc1ccc(/C=C/C(C(=O)O)C(=O)O)cc1` showed a TGI of over 100 µM.
In turn, `Cc1ccnc2sc3ccccc3c(=O)c12` registered a TGI of over 100 µM.
In the case of `C=C1CO[C@@H]2C[C@@H]1CCC1(C)OC1CC/C(C)=C/CC[C@@]2(C)O` (some centres undefined), the GI50 was over 100 µM and the TGI is over 100 µM.
For the compound `c1ccc(-c2nc3ccccc3n3nnnc23)cc1`, the TGI was over 100 µM.
Same read-out and setting: with `CCOC(=O)c1ccc(NC(NC(=O)CC)(C(F)(F)F)C(F)(F)F)cc1` the figure was over 100 µM.
For the compound `C#CC#CC#CC#CC#CC#CC#CC#CCC1OC[C@H](COC(=O)O[C@@H](C(=O)O[C@H]2C[C@@]3(O)[C@@H](OC(=O)c4ccccc4)[C@@H]4[C@]5(OC(C)=O)CO[C@@H]5C[C@H](O)[C@@]4(C)C(=O)[C@H](OC(C)=O)C(=C2C)C3(C)C)[C@@H](NC(=O)c2ccccc2)c2ccccc2)O1` (some centres undefined), the GI50 was 0.717 µM and the TGI was over 33.3 µM.
Compound `CC(C)(Oc1ccc(C(=O)c2ccc(Cl)cc2)cc1Cl)C(=O)N1CCN(c2ccccc2)CC1` came in with a TGI of over 100 µM.
Same read-out and setting: with `O=C1C(CN2CCCC2)CCCC1CN1CCCC1` (centres undefined) the figure was 32 µM.
`N#Cc1nc(Nc2ccc([N+](=O)[O-])cc2)sc1N`: the TGI was over 100 µM.
On the same count and under the same terms, with `C=CCc1cccc2cc(C(=O)Nc3nc(C45CC6CC(CC(C6)C4)C5)cs3)c(=O)oc12` the figure was over 100 µM.
In the case of `CC(C)(C)n1cc(-c2ccnc(NCCNS(=O)(=O)c3cccc4ccccc34)c2)c(-c2cccc(F)c2)n1`, the GI50 was 32.8 µM and the TGI is over 100 µM.
The compound `Cc1nc2ccccc2cc1C[N+]12CN3CN(CN(C3)C1)C2` came in with a TGI of 53.8 µM.
In turn, `CCCCC(=O)OC[n+]1ccc2c(C)c3[nH]c4ccc(OC)cc4c3c(C)c2c1` showed a TGI of 12.8 µM.
Same read-out and setting: with `CCCN1C(=O)/C(=C(/O)C(=O)OCC)C(c2ccc(OC)c(OC)c2)C1=O` (centres undefined) the figure was over 100 µM.
In turn, `CC(C)(C)C(=O)OCC(COC(=O)C(C)(C)C)[N+](=O)[O-]` registered a TGI of over 100 µM.
As for `NC(CNc1ccc(O)cc1)C(=O)O` (centres undefined), the TGI is over 100 µM.
The compound `CN1CCN(c2c(O)c3c(c(O)c2Cl)C(=O)C=CC3=O)CC1` returned a TGI of 3.19 µM.
Consider `CC(C)(C)OC(=O)N1C/C=C\C(=O)C2(OCCO2)c2ccccc21`, for which the TGI is over 100 µM.
On the same count and under the same terms, in the case of `O=[N+]([O-])c1ccc(O)c2ncccc12` it was > 100 µM and 60.7 µM; in that of `NC(=S)N/N=C(\C(=O)Nc1ccc(Cl)c(Cl)c1)C1=NN(c2ccccc2)C(c2cccc([N+](=O)[O-])c2)CC1=O` (centres undefined), over 100 µM.
On the same count and under the same terms, in the case of `CC(=O)N1C(OCc2ccccc2)CCN1c1ccccc1` (centres undefined) it was over 10 µM.
On the same count and under the same terms, in the case of `Cc1cnc2[nH]c(-c3cccc(Cl)c3)cc(=O)c2c1` it was over 100 µM.
`OC1(c2ccc(Cl)cc2)c2ccccc2C2=NCc3ccccc3CN21` (centres undefined) returned a TGI of 23.4 µM.
Same read-out and setting: with `CC(C)CC(=O)CC(O)C(Cl)(Cl)Cl` (centres undefined) the figure was over 100 µM; with `COc1cc(-c2coc3c(OC)c(OC4OC(COC5OC(C)C(O)C(O)C5O)C(O)C(O)C4O)c(OC)c(O)c3c2=O)cc(C)c1O` (centres undefined), 30.4 µM.
Consider `Nc1ccc(-c2nc3cc(F)ccc3s2)cc1`, for which the TGI was over 100 µM.
Consider `CC(CC(C)(C)[N+](C)(C)C)[N+](C)(C)C` (centres undefined), for which the TGI is over 100 µM.
Consider `CN(Cc1ccccc1)C1(N(C)Cc2ccccc2)CC1`, for which the TGI was over 100 µM.
In turn, `CC(=O)OC1C(O)C(C)OC(OC(=O)C2CCC3C(C2)OC2(CC(OC(=O)/C=C/c4ccccc4)C(C)CO2)C32CO2)C1OC1OC(C)C(O)C(O)C1O` (centres undefined) displayed a TGI of 0.281 µM.
`CCC(C)CC(CC)NCCN1CCN(C(CC)CC(C)CC)C1=S` (centres undefined): the GI50 is 2.94 µM and the TGI worked out at 10.3 µM.
